From article PMC7819943, “Rice protein-binding microarrays: a tool to detect cis-acting elements near promoter regions in rice” come the findings set out here.

Some of the results follow.

The target in the test is T1, OsWOX13 (Oryza sativa, UniProt Q5QMM3 1-267).
T1 sequence: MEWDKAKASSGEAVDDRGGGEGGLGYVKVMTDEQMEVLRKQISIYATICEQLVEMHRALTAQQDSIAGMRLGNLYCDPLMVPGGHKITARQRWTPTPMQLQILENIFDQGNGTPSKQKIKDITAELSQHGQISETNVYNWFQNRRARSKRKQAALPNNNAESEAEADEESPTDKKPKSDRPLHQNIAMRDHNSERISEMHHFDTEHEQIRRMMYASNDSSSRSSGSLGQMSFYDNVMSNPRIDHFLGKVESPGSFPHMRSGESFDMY
Briefly: protein-binding microarray (RPBM); PBS, 2% BSA, 51.3 ng/ul salmon testes DNA, 50 uM zinc acetate, 200 nM TF, 25 C, 1 h; high values mean tight binding. Particulars: protein: recombinant; tags: N-terminal polyhistidine and DsRed monomer fusion (pET32a); label: CyDye5-dUTP incorporated in the synthesized complementary strand; 3' TTTTT single-stranded linker to array surface; dsDNA, one strand shown. In outline: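 Transcription factors were each fused at the N-terminus to a polyhistidine tag plus DsRed and expressed in E. coli BL21-CodonPlus before Ni–NTA purification. Binding to a double-stranded custom Agilent array was carried out with 200 nM protein at 25 °C for 1 h in PBS, 2% BSA, salmon testes DNA and 50 µM zinc acetate. The binding signal is per-feature fluorescence intensity, in arbitrary units, on an Axon 4000B scanner.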
“ATCAAATCAATCAAAGCTCTTTTATGATTTTGTCTCATCGCGGAGTCACCTAGTGCAG”: the binding signal was 23900 fluorescence intensity (a.u.).
Consider “AAACAAATTTATGGGGCGTAGAAGGGATTGGGTGAAATTACGGAGTCACCTAGTGCAG”, for which the binding signal was 7180 fluorescence intensity (a.u.).
With “TGTGCCTAATTTGTTTTGATCTAAAATTTATAAGGGAATTCGGAGTCACCTAGTGCAG” the figure was 12900 fluorescence intensity (a.u.).
With “TAGAGGGTGTGGATAGTGATTGAGTGGGATTTAGGTCCTCCGGAGTCACCTAGTGCAG” the figure was 5150 fluorescence intensity (a.u.).
For “AAAGATTTAATTCTTACAAACACAACCGCGTGTAATCGGACGGAGTCACCTAGTGCAG”, the binding signal is 4570 ± 557 fluorescence intensity (a.u.).
With “TGTCAATGTTTTAGGTTCTCATAGTAAATACTAACATCCTCGGAGTCACCTAGTGCAG” the figure was 3970 fluorescence intensity (a.u.); with “ATAAAATTAAAGTAAATGTGATACAAACGTGGCATGTTTGCGGAGTCACCTAGTGCAG”, 8490 fluorescence intensity (a.u.).
With “AGGTAATTGAGTATGCAGTAAGCAGTTGATGTGTATCTGTCGGAGTCACCTAGTGCAG” the figure was 31800 fluorescence intensity (a.u.); with “ATTTCCAATCTCCATTAATAAGCCAATCCCCAGCCTGTCCCGGAGTCACCTAGTGCAG”, 6110 fluorescence intensity (a.u.); with “ATGTTTTGCCTTTTATAATTATACGTGTGTAAATCATATGCGGAGTCACCTAGTGCAG”, 3900 fluorescence intensity (a.u.).
On to “ACTTTGCTTAACAAATTACTAATTTACTACCAGTAGTCTACGGAGTCACCTAGTGCAG”, for which the binding signal is 12600 fluorescence intensity (a.u.).
Take “TATTTTAAAATTGATAAAATCATCACGGATATCTTGTTGTCGGAGTCACCTAGTGCAG”: the binding signal was 15900 fluorescence intensity (a.u.).
With “AGTTGATTTTGACTGAAGTTTGCCTCGGACGTGCTGGTGGCGGAGTCACCTAGTGCAG” the figure was 51500 fluorescence intensity (a.u.).
With “CTATTAATTTCCTCGTGTTAGTTAATGAATCATCACGCGCCGGAGTCACCTAGTGCAG” the figure was 11600 fluorescence intensity (a.u.).
With “TATATATATATATATATATATATATATATATTACAAAATACGGAGTCACCTAGTGCAG” the figure was 10700 fluorescence intensity (a.u.).
On to “GAAGTTATTAACAAATTAGATACATCTCTTGTTTAGATTACGGAGTCACCTAGTGCAG”, for which the binding signal is 4700 fluorescence intensity (a.u.).
Consider “CTGATAAATTATATAGCTCCTGTGAAACTTTCTATGCAGACGGAGTCACCTAGTGCAG”, for which the binding signal is 15500 fluorescence intensity (a.u.).
With “TTTGAAGATTTAATTGCAACGAATTTAATGGTGCAATCGGCGGAGTCACCTAGTGCAG” the figure was 10600 fluorescence intensity (a.u.); with “GTGTATTGATCTTGGATTGAGGGAGTTTTATCTGAAGACTCGGAGTCACCTAGTGCAG”, 4730 fluorescence intensity (a.u.).
With “AAAATCATAAAATTGGCTAAATTAGTATAGGAAGGGTCCCCGGAGTCACCTAGTGCAG” the figure was 12100 fluorescence intensity (a.u.).
With “TAGTAATTGGTACTGTTGAACTTATTAGCGTGCTCCCCAACGGAGTCACCTAGTGCAG” the figure was 25900 fluorescence intensity (a.u.); with “TATATTTTGATTTTAAATTTGACAAAAGAATCGGGAAATCCGGAGTCACCTAGTGCAG”, 5000 fluorescence intensity (a.u.); with “TACATGACTGAATCATCGTTAATCACCGTTGAAAAGTCACCGGAGTCACCTAGTGCAG”, 14700 fluorescence intensity (a.u.).
“CAGGATTAGCTAGGGAATTAACGTGTCTATTACCATACTTCGGAGTCACCTAGTGCAG”: the binding signal is 12500 fluorescence intensity (a.u.).
With “CCTCTCTTTAATTATACCCTGCTAACCCGACCAAGCAAAGCGGAGTCACCTAGTGCAG” the figure was 3320 fluorescence intensity (a.u.); with “AATACTTAATTAATCACGCGCTAATGGAATACAACCCTATCGGAGTCACCTAGTGCAG”, 14100 fluorescence intensity (a.u.).
With “TACTGGATTAAATTATTTTGGACTTTCCCAAAATAGAACACGGAGTCACCTAGTGCAG” the figure was 3390 fluorescence intensity (a.u.).
With “GACGAATTAATTCCAAACAGCGCGAGGGCCTTCCATAACGCGGAGTCACCTAGTGCAG” the figure was 3900 fluorescence intensity (a.u.); with “GCTAATAGATTGCTATTGTATCTGCTCTTATGCATGATCGCGGAGTCACCTAGTGCAG”, 61200 fluorescence intensity (a.u.); with “GCTAATTATAGTTTAATTAGGCTTAATAAATTTACAGTTTCGGAGTCACCTAGTGCAG”, 42300 fluorescence intensity (a.u.).
In the case of “TATGTAATTTTAGAATTTATATTATAAATACACTAAATTTCGGAGTCACCTAGTGCAG”, the binding signal was 5170 fluorescence intensity (a.u.).
With “TCTCATCCTCCTTGATAGATTTCTTGAGCTTGGGACACGTCGGAGTCACCTAGTGCAG” the figure was 4310 fluorescence intensity (a.u.); with “AATAAATTAGGAAAAGAATATGTTTTAGGCTACATTCGACCGGAGTCACCTAGTGCAG”, 12200 fluorescence intensity (a.u.).
With “CCCTAAATACATTCATAATTTTACTTCCACCGATCAAAATCGGAGTCACCTAGTGCAG” the figure was 3190 fluorescence intensity (a.u.); with “TTCCATCACATCAAAATTTTCCTACACACAAACTTTCAATCGGAGTCACCTAGTGCAG”, 3300 fluorescence intensity (a.u.); with “CTTGTTTAATTAGAAAATATATATGGCAAGGAAATCAACGCGGAGTCACCTAGTGCAG”, 13200 fluorescence intensity (a.u.).
Regarding “TAATTAACAAATTTAGATAAGAGTTATTTATTGTTGTAGGCGGAGTCACCTAGTGCAG”, the binding signal is 9740 fluorescence intensity (a.u.).
With “ATATGTTTAATTAAAGTAGCATCTGAAAATTATGTTGAAGCGGAGTCACCTAGTGCAG” the figure was 5960 fluorescence intensity (a.u.).
With “AGTAACTTCAATGTTAATTGGAAATAACTTTTGCATTGTTCGGAGTCACCTAGTGCAG” the figure was 18200 fluorescence intensity (a.u.).
With “TTACTTTCAATAATTTGGATTATAATAATCCCAAACTTTGCGGAGTCACCTAGTGCAG” the figure was 5090 fluorescence intensity (a.u.); with “TTGATGTGATGGAAAAGTTGAAAGTTTGGAACTAAACTCGCGGAGTCACCTAGTGCAG”, 11300 fluorescence intensity (a.u.).
In the case of “TTATATTTTAATTAAAACTATTATAATACACAATACGTCACGGAGTCACCTAGTGCAG”, the binding signal is 10200 fluorescence intensity (a.u.).
